The test system of assay [1] is human H1N1 virus.
The subject of assay [2] is human H1N1 virus. The following applies: low inoculum (10^4 PFU) groups (FIG. 17).
Assay [3] has as its system human H1N1 virus. This is another data set of the same source.
Setting [4] is: 10^6 PFU, BAL Day 3, compared with vehicle.
[5] abbreviates: low inoculum (10^4 PFU), compared to sham (mock) treated animals.

Like-named read-outs stand apart in the source and are kept apart here.

On to “EV576: Lipocalin protein from salivary glands of the tick Ornithodoros moubata, sequence of FIG. 2; binds complement C5 and LTB4”, for which the “total protein in BAL fluid” value in assay [1] (10^4 PFU, BAL Day 6, i.p., compared with vehicle) was “significantly lower”; in assay [1] (setting [4]) it was “Reduction”. The IL-6 level result in assay [1] (10^4 PFU, compared with EV131 or vehicle (FIG. 9)) was “Reduction”; in assay [1] (10^6 PFU, compared with vehicle (FIG. 12)) it was “Reduction”. Further, the CXC2 level result is reported as “Reduction” in assay [1] (10^4 PFU, compared with EV131 or vehicle (FIG. 10)) and “Reduction” in assay [1] (10^6 PFU, compared with vehicle (FIG. 13)). Also, the IL-1β result in assay [1] (10^4 PFU, compared with EV131 or vehicle (FIG. 11)) is reported as “Reduction”; in assay [1] (10^6 PFU, compared with vehicle (FIG. 14)) it was “Reduction”. Also, the “neutrophils per 100 mg lung tissue” value in assay [1] (10^4 PFU, compared with EV131 or vehicle (FIG. 15)) is “Relative reduction”; in assay [1] (10^6 PFU, compared with EV131 or vehicle (FIG. 16)) it was “Relative reduction”. Further, the “total cells in BAL fluid” value in assay [1] (setting [4]) is “Reduction”. For the same substance, the “CXCL2 level in BAL fluid” value in assay [1] (setting [5]) is on record as “not significantly different”. Further, the “IL-1β level in BAL fluid” value in assay [1] (setting [5]) is given as “not significantly different”. The “IL-6 level in BAL fluid” value in assay [1] (setting [5]) is recorded as “not significantly different”. Moreover, the “sum of histopathological scores of lung inflammation (epithelial damage and inflammation)” value in assay [2] was “reduced epithelial damage and inflammation”. Besides, the “rise in C5a level in BALF” value is listed as “significantly attenuated rise” in assay [3] (high inoculum (10^6 PFU), day 3 (FIG. 22)) and “significantly attenuated rise” in assay [3] (low inoculum (10^4 PFU), day 6 (FIG. 21)).
